Measurements from paper PMC4336329 (PLoS ONE, 2015).
The campaign covered roughly 310,000 compounds. About 2,200 (0.71%) showed an effect of 50% or more. Effects have a minus sign here. The list shows a part of the results.

Target: human ether-à-go-go-related gene (hERG) potassium channel (human, UniProt Q12809)
Assay: primary screen, population patch clamp on CHO cells stably expressing hERG

Chain of human ether-à-go-go-related gene (hERG) potassium channel (Q12809 whole entry, looked up): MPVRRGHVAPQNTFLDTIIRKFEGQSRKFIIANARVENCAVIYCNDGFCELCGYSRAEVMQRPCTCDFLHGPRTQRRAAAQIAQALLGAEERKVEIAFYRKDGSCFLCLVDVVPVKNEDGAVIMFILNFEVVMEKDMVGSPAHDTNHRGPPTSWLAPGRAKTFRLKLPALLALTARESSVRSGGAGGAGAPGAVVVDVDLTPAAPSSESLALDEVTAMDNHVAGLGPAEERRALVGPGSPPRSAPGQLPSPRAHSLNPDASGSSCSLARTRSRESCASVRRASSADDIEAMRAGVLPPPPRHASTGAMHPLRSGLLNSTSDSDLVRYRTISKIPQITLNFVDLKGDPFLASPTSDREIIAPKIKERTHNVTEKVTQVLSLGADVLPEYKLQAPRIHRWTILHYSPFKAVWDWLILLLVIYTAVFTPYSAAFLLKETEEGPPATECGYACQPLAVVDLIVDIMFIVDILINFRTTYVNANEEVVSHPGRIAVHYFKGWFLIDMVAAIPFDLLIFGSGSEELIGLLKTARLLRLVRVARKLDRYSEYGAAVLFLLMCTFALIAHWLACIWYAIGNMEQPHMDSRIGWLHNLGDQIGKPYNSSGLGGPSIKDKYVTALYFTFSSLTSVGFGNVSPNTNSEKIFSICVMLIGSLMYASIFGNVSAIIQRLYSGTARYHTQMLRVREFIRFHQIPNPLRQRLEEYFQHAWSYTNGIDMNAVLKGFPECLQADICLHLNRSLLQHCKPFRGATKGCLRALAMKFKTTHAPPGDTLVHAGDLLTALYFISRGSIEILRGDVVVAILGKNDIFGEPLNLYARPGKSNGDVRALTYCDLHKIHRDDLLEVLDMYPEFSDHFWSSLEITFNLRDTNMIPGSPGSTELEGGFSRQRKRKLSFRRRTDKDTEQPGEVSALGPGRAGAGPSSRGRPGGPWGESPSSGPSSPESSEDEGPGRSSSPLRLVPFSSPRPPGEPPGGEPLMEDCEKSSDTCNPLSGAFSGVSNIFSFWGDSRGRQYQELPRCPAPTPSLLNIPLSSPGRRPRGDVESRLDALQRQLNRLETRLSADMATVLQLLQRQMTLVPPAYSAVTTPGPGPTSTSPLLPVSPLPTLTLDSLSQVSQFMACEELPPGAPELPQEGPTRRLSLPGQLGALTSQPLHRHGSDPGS

| Compound | hERG current change (%, negative = inhibition) at 1uM |
| --- | --- |
| COc1ccc(Nc2ccc([N+](=O)[O-])c3nonc23)c(OC)c1 | 14.2% |
| CCOC(=O)c1ccc(NS(=O)(=O)c2ccc3c(c2)NC(=O)CCS3)cc1 | 15.6% |
| CCOC(=O)c1ccc(NC(=S)N2CCN(c3ccc(N4CCOCC4)nn3)CC2)cc1 | 5.86% |
| Cc1ccc2nc(C(=O)N3CCCC(Nc4ccc(F)cc4)C3)cn2c1 (stereo not shown) | 10.7% |
| Cl.OC(Cc1ccccc1)(c1ccccc1)C1CN2CCC1CC2 (stereo not shown) | -23.8% |
| Cc1ccc(NC(=O)c2ccc3c(c2)[nH]c(=O)n3C(C)C)cc1 | 9.8% |
| CCOc1ccc(NS(=O)(=O)c2ccc(NC(=O)C3CCCO3)cc2)cc1 (stereo not shown) | 18.1% |
| Cc1ccc(NC(=O)c2ccc(COc3ccccc3[N+](=O)[O-])o2)nc1 | 10.4% |
| Cc1ccc(NC(=O)N2CCSc3ccccc32)cc1 | 7.09% |
| C=CCN1C(=O)/C(=C/c2ccc(N3CCOCC3)o2)C(=O)NC1=S | -2.59% |
| COc1ccc(-c2ccc(N(C)C)cc2)cc1[C@H]1[C@H]2C=CC[C@@H](C)[C@@H]2C(=O)N1Cc1ccccc1 | 12.1% |
| O=P(O)(O)O.c1ccc(CN(CC2=NCCN2)c2ccccc2)cc1 | 7.67% |
| O=C(O)Cn1cnc2scc(-c3ccccc3)c2c1=O | 18.3% |
| COc1ccc(C(C)=O)cc1CSCCC(=O)O | 15% |
| CCOc1ccc(S(=O)(=O)N2CC(=O)Nc3ccccc32)cc1C#N | 6.22% |
| CN(CC(=O)N1CCN(c2ncccn2)CC1)S(=O)(=O)c1ccc(Cl)cc1 | 2.66% |
| Cc1cc(=O)[nH]c(SCc2cccc3ccccc23)n1 | 18.5% |
| CCOC(=O)c1ccc(N/C(=N/S(=O)(=O)c2ccccc2)c2ccccc2)cc1 | 0.804% |
| Cc1ccc(NC(=O)c2cc(NC(=O)CCC(=O)O)ccc2N2CCCCC2)cc1 | 11.9% |
| O=c1[nH]c2c(c(=O)n1Cc1ccccc1)CCC2 | 7.82% |
| Cc1cc(C)c(NC(=O)CSc2nc3ccc(N4C(=O)c5ccccc5C4=O)cc3s2)c(C)c1 | 17.9% |
| CCc1cccc(C)c1NC(=O)CCCSc1nc2ccccc2s1 | 14.3% |
| NNC(=O)c1cc2cc(Oc3ccccc3)ccc2[nH]1 | 14.2% |
| COc1ccc(S(=O)(=O)Nc2ccc(S(=O)(=O)N3CCCCC3)cc2)cc1 | 4.23% |
| Cc1ccc(Nc2nc(CSc3nnnn3-c3ccccc3)cs2)cc1 | 10.2% |
| Cc1ccc(-c2nc(CS(=O)CC(=O)N3CCN(c4ncccn4)CC3)c(C)o2)cc1 (stereo not shown) | -23.6% |
| Cc1ccc(C(=O)c2ccc([N+](=O)[O-])cc2)cc1 | 14.2% |
| CCC(C)NCCCOc1c(C)cc(C)cc1Br.O=C(O)C(=O)O (stereo not shown) | 2.26% |

| Compound | hERG current change (%, negative = inhibition) at 1uM |
| --- | --- |
| CC(C)CCN1CCN(C2CCN(c3ccc4c(c3)OCO4)CC2)CC1CCO (stereo not shown) | 3.4% |
| Cc1cccc(Nc2nnc(SC3CCOC3=O)s2)c1C (stereo not shown) | 9.16% |
| CC(=O)c1cccc(NC(=O)Nc2csc3c2CCCC3)c1 | 7.58% |
| CCC(CC)NC(=O)COC(=O)c1cc(Br)ccc1Cl | 12.5% |
| CC(=O)N1CCN(C(=S)Nc2ccc(SC(F)F)cc2)CC1 | -7.06% |
| CCOc1cc(NC(=S)NCCCN2CCOCC2)c(OCC)cc1NC(=O)C1CC1 | 6.18% |
| COc1ccc(CNC(=O)CSc2nnc(-c3cccnc3)n2N)cc1 | 7.27% |
| COC(=O)[C@@H]1C[C@@]2(O)[C@@H](O)[C@@H](O)[C@@H](O)C[C@H]2N1Cc1cc(OC)cc(OC)c1 | 16.9% |
| Oc1c(Cl)cc(Cl)cc1C=Nc1cc(C(F)(F)F)ccc1N1CCc2ccccc2C1 | 8.02% |
| COc1cccc(CC2(CO)CCCN(Cc3ccc(CN4CCCCC4)s3)C2)c1 (stereo not shown) | 0.717% |
| CCOC(=O)c1ccc(COC(=O)CNS(=O)(=O)c2ccccc2)cc1 | 16.8% |
| COc1ccc(S(=O)CC(=O)Nc2ccccc2Cl)cc1 (stereo not shown) | 13.4% |
| CC(Cc1ccccc1)C(=O)N(C)Cc1cccnc1 (stereo not shown) | 15.3% |
| Cc1ccc(N=C2C(=O)Nc3ccccc32)c(C)c1 | 13% |
| CCN(CC)CCN1C(=O)c2ccccc2NC1c1ccc(N(C)C)cc1 (stereo not shown) | -13.4% |
| COc1ccc(C)cc1NC(=O)C(OC(=O)Cn1cnc2c1c(=O)n(C)c(=O)n2C)c1ccccc1 (stereo not shown) | 13.6% |
| CCOc1ccc(NC(=O)CCn2nc(C)c(S(=O)(=O)N3CCCCC3)c2C)cc1 | 5.33% |
| CN1CCN(c2cc(=O)n(-c3ccc(Cl)cc3)c(=O)[nH]2)CC1 | 3.27% |
| O=C(O)c1ccc(/C=N/O)cc1 | 2.62% |
| Cc1ccc(C(=O)/C=C/c2ccc(-c3ccccc3[N+](=O)[O-])o2)cc1 | 12.8% |
| CS(=O)(=O)c1ccc2nc(NC(=O)c3cccc(NS(=O)(=O)c4ccc(F)c(F)c4)c3)sc2c1 | 1.19% |
| CCOC(=O)c1c(C)n(OC)c2ccc3c(no[n+]3[O-])c12 | 7.58% |
| Cc1ccc(C2(C)NC(=O)N(CC(=O)NCc3cccc(Cl)c3)C2=O)cc1 (stereo not shown) | 10.7% |
| COCCNC(=S)N(CCc1c(C)[nH]c2ccc(C)cc12)Cc1cccnc1 | 9.67% |
| CCN(C(=O)COC(=O)c1cccc(S(=O)(=O)N(CC)CC)c1)C1CCS(=O)(=O)C1 (stereo not shown) | 17.4% |
| C=CCOn1c(=O)c(C)[n+]([O-])c2ccccc21 | 8.03% |
| CC(OC(=O)Cn1[nH]c(=O)c2ccccc2c1=O)C(=O)Nc1ccccc1[N+](=O)[O-] (stereo not shown) | 9.65% |
